Results taken from the supplement of paper PMC4967469.
IC50 is the fitted dose that halves viability relative to control wells, and lower means more sensitive; where the fit passes the top or lowest dose, that dose stands as a limit. AUC is the area under the same curve over the 256-fold range up to the top dose, as a fraction; the more sensitive the line, the further below 1. Any top dose called inferred is not printed in the source and was worked back from the curve model.

Assays:
Assay in all cases: Viability of human cancer cell lines after 72 h of drug (GDSC screen)
PFI-1 = compound: COc1ccccc1S(=O)(=O)Nc1ccc2c(c1)CN(C)C(=O)N2 [PFI-1]; details: top dose 10 µM; top dose inferred
Procedure: (§1)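 Human cancer cell lines in 384-well plates, medium with 10% serum, drug for 72 h over a 256-fold dose range (nine 2-fold or five 4-fold steps up to the top dose). Adherent lines were fixed and stained with the nucleic acid dye Syto60, suspension lines read with resazurin; signal relative to control wells, capped at 0 and 100%. One two-parameter sigmoid per drug and line, fitted in a mixed model over all curves with the slope shared within a line.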

GSK-1904529A = compound: CCc1cc(Nc2nccc(-c3c(-c4ccc(OC)c(C(=O)Nc5c(F)cccc5F)c4)nc4ccccn34)n2)c(OC)cc1N1CCC(N2CCN(S(C)(=O)=O)CC2)CC1 [GSK-1904529A]; details: top dose 1.024 µM; top dose inferred
Procedure: as §1

Tipifarnib = compound: Cn1cncc1[C@@](N)(c1ccc(Cl)cc1)c1ccc2c(c1)c(-c1cccc(Cl)c1)cc(=O)n2C [Tipifarnib]; details: top dose 16 µM; top dose inferred
Procedure: as §1

NG-25 = compound: CCN1CCN(Cc2ccc(NC(=O)c3ccc(C)c(Oc4ccnc5[nH]ccc45)c3)cc2C(F)(F)F)CC1 [NG-25]; details: top dose 10.24 µM; top dose inferred
Procedure: as §1

| Cell Line | AUC (PFI-1) | IC50 (PFI-1) | AUC (GSK-1904529A) | IC50 (GSK-1904529A) | AUC (Tipifarnib) | IC50 (Tipifarnib) | AUC (NG-25) | IC50 (NG-25) |
| --- | --- | --- | --- | --- | --- | --- | --- | --- |
| A431 (skin, adherent) | 0.924 | > 10 µM | 0.987 | > 1.02 µM | 0.416 | 0.593 µM | 0.862 | 8.15 µM |
| MHH-ES-1 (Ewing sarcoma, adherent) | 0.805 | 4.96 µM | 0.977 | > 1.02 µM | 0.685 | 3.28 µM | 0.672 | 1.91 µM |
| KMRC-20 (kidney, adherent) | 0.955 | > 10 µM | 0.956 | > 1.02 µM | 0.905 | > 16 µM | 0.963 | > 10.2 µM |
| CAL-72 (osteosarcoma, adherent) | 0.86 | > 10 µM | 0.978 | > 1.02 µM | 0.732 | 5.25 µM | 0.984 | > 10.2 µM |
| KP-3 (pancreas, adherent) | 0.867 | > 10 µM | 0.982 | > 1.02 µM | 0.79 | 8.66 µM | 0.913 | > 10.2 µM |
| NCI-H841 (small cell lung carcinoma, adherent) | 0.955 | > 10 µM | 0.973 | > 1.02 µM | 0.876 | 16 µM | 0.942 | > 10.2 µM |
| MEL-JUSO (melanoma, adherent) | 0.927 | > 10 µM | 0.946 | > 1.02 µM | 0.133 | < 0.0625 µM | 0.81 | 6.16 µM |
| NCI-H1563 (lung adenocarcinoma, adherent) | 0.863 | > 10 µM | 0.951 | > 1.02 µM | 0.869 | > 16 µM | 0.886 | > 10.2 µM |
| H2869 (mesothelioma, adherent) | 0.948 | > 10 µM | 0.939 | > 1.02 µM | 0.625 | 2.41 µM | 0.817 | 7.52 µM |
| 23132-87 (stomach, adherent) | 0.925 | > 10 µM | 0.971 | > 1.02 µM | 0.764 | 6.02 µM | 0.825 | 6.43 µM |
| H2369 (mesothelioma, adherent) | 0.9 | > 10 µM | 0.949 | > 1.02 µM | 0.041 | < 0.0625 µM | 0.972 | > 10.2 µM |
| KYSE-50 (oesophagus, adherent) | 0.942 | > 10 µM | 0.982 | > 1.02 µM | 0.581 | 1.63 µM | 0.871 | 8.27 µM |
| HT-3 (cervix, adherent) | 0.823 | 6.01 µM | 0.987 | > 1.02 µM | 0.925 | > 16 µM | 0.97 | > 10.2 µM |
| SK-N-AS (neuroblastoma, adherent) | 0.816 | 6.65 µM | 0.975 | > 1.02 µM | 0.857 | > 16 µM | 0.977 | > 10.2 µM |
| NUGC-3 (stomach, adherent) | 0.902 | > 10 µM | 0.825 | 0.716 µM | 0.682 | 3.47 µM | 0.941 | > 10.2 µM |
| PCI-30 (head and neck, adherent) | 0.853 | > 10 µM | 0.984 | > 1.02 µM | 0.949 | > 16 µM | 0.984 | > 10.2 µM |

| Cell Line | AUC (PFI-1) | IC50 (PFI-1) | AUC (GSK-1904529A) | IC50 (GSK-1904529A) | AUC (Tipifarnib) | IC50 (Tipifarnib) | AUC (NG-25) | IC50 (NG-25) |
| --- | --- | --- | --- | --- | --- | --- | --- | --- |
| Hs939-T (melanoma, adherent) | 0.937 | > 10 µM | 0.985 | > 1.02 µM | 0.794 | 8.19 µM | 0.9 | > 10.2 µM |
| NB12 (neuroblastoma, adherent) | 0.807 | 7.4 µM | 0.966 | > 1.02 µM | 0.774 | 8.6 µM | 0.915 | > 10.2 µM |
| CHL-1 (melanoma, adherent) | 0.705 | 2.28 µM | 0.969 | > 1.02 µM | 0.471 | 0.837 µM | 0.783 | 4.06 µM |
| NCI-H1755 (lung adenocarcinoma, adherent) | 0.946 | > 10 µM | 0.98 | > 1.02 µM | 0.842 | 13.9 µM | 0.871 | > 10.2 µM |
| NCI-H2023 (lung adenocarcinoma, adherent) | 0.903 | > 10 µM | 0.979 | > 1.02 µM | 0.828 | 13.3 µM | 0.978 | > 10.2 µM |
| OAW-42 (ovary, adherent) | 0.879 | > 10 µM | 0.956 | > 1.02 µM | 0.499 | 0.992 µM | 0.974 | > 10.2 µM |
| SAS (head and neck, adherent) | 0.652 | 1.74 µM | 0.973 | > 1.02 µM | 0.847 | 13.8 µM | 0.903 | > 10.2 µM |
| HCC1954 (breast, adherent) | 0.981 | > 10 µM | 0.982 | > 1.02 µM | 0.737 | 5.4 µM | 0.984 | > 10.2 µM |
| NCI-H2029 (small cell lung carcinoma, adherent) | 0.991 | > 10 µM | 0.992 | > 1.02 µM | 0.98 | > 16 µM | 0.952 | > 10.2 µM |
| RH-41 (rhabdomyosarcoma, adherent) | 0.85 | 5.77 µM | 0.985 | > 1.02 µM | 0.856 | 9.73 µM | 0.992 | > 10.2 µM |
| Caov-4 (ovary, adherent) | 0.903 | > 10 µM | 0.968 | > 1.02 µM | 0.833 | > 16 µM | 0.783 | 6.66 µM |
| SU8686 (pancreas, adherent) | 0.909 | > 10 µM | 0.986 | > 1.02 µM | 0.821 | 10.7 µM | 0.967 | > 10.2 µM |
| TK (B-cell lymphoma, suspension) | 0.948 | > 10 µM | 0.989 | > 1.02 µM | 0.529 | 1.19 µM | 0.821 | 5.26 µM |
| Capan-2 (pancreas, adherent) | 0.924 | > 10 µM | 0.97 | > 1.02 µM | 0.78 | 8.1 µM | 0.935 | > 10.2 µM |
| RPMI-7951 (melanoma, adherent) | 0.891 | > 10 µM | 0.986 | > 1.02 µM | 0.777 | 6.25 µM | 0.877 | 9.75 µM |
